# Experimental data as given in PubChem BioAssay AID588342 (National Center for Advancing Translational Sciences (NCATS), 2011).
# The campaign covered roughly 360,000 compounds. About 25,000 (6.9%) were called active. The inconclusive results got no clear call from the source; some entries with a clear call stand among them for comparison. The call rests on the fitted dose curve; in most records, active means well fitted inhibition curve with a large enough effect; inconclusive means small, poorly fitted or top-dose-only effect; inactive means flat fitted curve, though single readings scatter. A potency beside an inconclusive call is a rough fit, not a confirmed value.
# Target: Luciferin 4-monooxygenase (Photinus pyralis) (UniProt P08659)
# Chain of UniProt P08659 (P08659 whole entry, looked up): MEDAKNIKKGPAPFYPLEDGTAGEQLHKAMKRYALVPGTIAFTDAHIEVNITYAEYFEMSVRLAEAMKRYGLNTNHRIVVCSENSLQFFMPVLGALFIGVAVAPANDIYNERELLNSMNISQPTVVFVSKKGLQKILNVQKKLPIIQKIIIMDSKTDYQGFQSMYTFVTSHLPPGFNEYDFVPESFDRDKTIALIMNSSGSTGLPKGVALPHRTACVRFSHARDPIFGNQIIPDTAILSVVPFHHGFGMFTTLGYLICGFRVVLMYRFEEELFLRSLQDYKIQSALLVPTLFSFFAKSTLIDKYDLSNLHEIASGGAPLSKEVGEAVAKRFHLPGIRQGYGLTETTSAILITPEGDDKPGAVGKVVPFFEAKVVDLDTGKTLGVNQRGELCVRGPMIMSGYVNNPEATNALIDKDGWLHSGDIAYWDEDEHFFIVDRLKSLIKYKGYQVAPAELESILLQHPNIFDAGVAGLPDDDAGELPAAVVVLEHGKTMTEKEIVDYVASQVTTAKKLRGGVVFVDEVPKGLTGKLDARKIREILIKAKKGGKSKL
# Test: qHTS profiling assay for firefly luciferase inhibitor/activator using purifed enzyme and Km concentrations of substrates (counterscreen for miR-21 project); further: nearly all actives have a fitted effect of over 55% in size
# Conditions: purified FLuc, luminescence inhibition; series mostly up to 57.5 µM
# Procedure, shortened: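 Biochemical qHTS of compounds, final roughly 60 µM downward over six points, against 10 nM purified firefly luciferase using Km concentrations of substrates (10 uM D-luciferin, 10 uM ATP) in Tris acetate pH 7.5 buffer; luminescence output.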
# Potency means the concentration at half of the fitted maximal effect; tags describe the fitted curve by direction and shape.
row,SMILES,Potency
1,Cc1c(CC(=O)O)c(=O)oc2cc3oc4c(c3cc12)CCCC4,active: 26.9 µM
2,CC(C)CN(CCNC(=O)c1cn(C)c2ccc(S(=O)(=O)N3CCCCCC3)cc2c1=O)CC(C)C,inactive
3,COc1cc(NC(=O)Cn2ccn(-c3cc(C)cc(C)c3)c(=O)c2=O)cc(OC)c1,"inconclusive: 42.6 µM [inhibitor, partial curve, poor fit]"
4,CCSc1nnc(NC(=O)c2ccco2)s1,"inconclusive: 15.1 µM [inhibitor, partial curve]"
5,Cc1ccc(/C=N/Nc2nc(Cl)c(Cl)cc2Cl)s1,active: 6.01 µM
6,COC(=O)C1=C(C)NC(=S)NC1c1ccc(OCC(=O)N2CC(C)OC(C)C2)c(OC)c1 (centres undefined),inactive
7,Cc1ccc(S(=O)(=O)C(C#N)c2nc3ccccc3nc2OCCO)cc1 (centres undefined),"inconclusive: 15.1 µM [inhibitor, partial curve]"
8,N#C/C(=C\c1cccc(F)c1)c1nc(-c2cc3c(ccc4ccccc43)oc2=O)cs1,inactive
9,Cc1cc(C#N)c(SCC(N)=O)nc1-c1ccc(F)cc1,"inconclusive: 37.9 µM [inhibitor, partial curve, poor fit]"
10,O=C(Nc1ccc2nn(-c3ccccc3)nc2c1)c1ccco1,"inconclusive: 4.78 µM [inhibitor, full curve]"
11,O=C1c2ccc(Br)cc2C(=O)N1c1ccc(Cc2ccncc2)cc1,"inconclusive: 26.9 µM [inhibitor, partial curve, poor fit]"
12,O=C(Cc1ccc(Cl)cc1)Nc1ccc(C(=O)N2CCCCC2)cc1,active: 26.9 µM
13,COc1ccc(/C(C)=N/Nc2nc3ccccc3n3cnnc23)cc1OC,active: 10.7 µM
14,O=C(O)/C=C/c1ccc(-c2cccc(C(F)(F)F)c2)o1,"inconclusive: 26.9 µM [inhibitor, single point]"
15,COc1cc2c(cc1NC(=O)CSc1nnc(Cc3cccs3)n1C)oc1ccccc12,"inconclusive: 33.8 µM [inhibitor, single point]"
16,COC(=O)/N=C(/Cc1ccc(OC)cc1)c1ccc(OC)cc1,active: 0.757 µM
17,O=C(Cn1cnc2c(oc3ccccc32)c1=O)c1ccccc1,active: 15.1 µM
18,O=C(COC(=O)c1cnccn1)c1ccc(-c2ccccc2)cc1,"inconclusive: 33.8 µM [inhibitor, single point]"
19,C/C(CC(=O)Nc1ccc(N(C)C)cc1)=N\NC(=O)c1ccccn1,"inconclusive: 37.9 µM [inhibitor, partial curve, poor fit]"
20,CCOc1ccc(CNC(=O)c2ccccc2NC(=O)c2nsc3ccccc23)cc1,"inconclusive: 37.9 µM [inhibitor, single point]"
21,NC(=O)c1ccc[n+](Cc2cccc3ccccc23)c1,inactive
22,CC(C)Cn1c(-c2cccs2)nc2ccccc21,inactive
23,Cc1ccc(C2c3c(oc4ccccc4c3=O)C(=O)N2CCCN2CCOCC2)o1 (centres undefined),inactive
24,Clc1ccc(Nc2nc3cccnc3s2)cc1,"inconclusive: 3.79 µM [inhibitor, full curve]"
25,CCOc1ccc(C(=O)COC(=O)c2c(-c3ccccc3)noc2C)cc1,"inconclusive: 30.1 µM [inhibitor, single point]"

row,SMILES,Potency
1,COc1cc(C(=O)Nc2sc(C)c(C)c2C(=O)O)cc(OC)c1OC,"inconclusive: 21.3 µM [inhibitor, single point]"
2,O=C(OCCN1CCOCC1)c1ccc2c(c1)OCCO2,active: 23.9 µM
3,COc1ccccc1-c1nnc(SCC(=O)O)n1-c1ccccc1,"inconclusive: 30.1 µM [inhibitor, partial curve, poor fit]"
4,COc1cc(/C=N/NC(=O)c2cc3ccccc3cc2O)ccc1OCCN1CCCCC1,"inconclusive: 23.9 µM [inhibitor, partial curve, poor fit]"
5,O=C(c1c[nH]c2ccccc12)N1CCN(c2ccccc2)CC1,inactive
6,COc1ccc(C2=NN(C(C#N)c3ccc(OC)cc3)C(c3ccccc3)C2)cc1 (centres undefined),active: 23.9 µM
7,CC(C)(C)C(=O)NC(=S)NNC(=O)c1ccc(-c2ccccc2)cc1,"inconclusive: 37.9 µM [inhibitor, partial curve, poor fit]"
8,COc1ccccc1C1=NNC(=NCc2ccccc2)SC1,"inconclusive: 37.9 µM [inhibitor, partial curve, poor fit]"
9,COc1ccc(-c2cc(C(=O)N3CCN(c4ccccc4)CC3)c3ccccc3n2)cc1OC,active: 15.1 µM
10,Cc1cc(C)c(C#N)c(SCc2ccc(C(=O)O)cc2)n1,inactive
11,COc1cc(/C=C2\C(=O)ON=C2c2ccccc2)cc(Br)c1O,"inconclusive: 37.9 µM [inhibitor, single point]"
12,CC(C)(C)c1ccc(C(=O)NC2(C(F)(F)F)NC(=O)N(CCc3ccccc3)C2=O)cc1 (centres undefined),inactive
13,CCCNC(=O)c1ccccc1NC(=O)c1nsc2ccccc12,"inconclusive: 26.9 µM [inhibitor, partial curve, poor fit]"
14,COc1cccc(NC(=O)CSc2ncc3c(n2)-c2ccc(Cl)cc2N(C)S3(=O)=O)c1,inactive
15,COc1ccc(Nc2nc(N)nc(CSC(=S)N3CCC(C)CC3)n2)cc1,"inconclusive: 26.9 µM [inhibitor, single point]"
16,O=C(Nc1ccc(F)cc1)c1ccc(NC(=O)C2CCCO2)cc1 (centres undefined),"inconclusive: 37.9 µM [inhibitor, single point]"
17,CCOc1cc(/C=N/n2c(C)nc3ccccc3c2=O)ccc1O,inactive
18,Cc1ccc(NC(=O)N2C(=O)C3(OCCO3)c3ccccc32)cc1,"inconclusive: 2.69 µM [inhibitor, full curve]"
19,COC(=O)c1sccc1NC(=O)c1ccc(C(C)C)cc1,active: 10.7 µM
20,O=C(CSc1cccc2cccnc12)OCC(=O)c1ccc(Br)cc1,"inconclusive: 26.9 µM [inhibitor, partial curve, poor fit]"
21,O=C(N=Nc1c(O)[nH]c2ccccc12)c1cc(-c2ccc(F)cc2)n[nH]1,inactive
22,COc1ccc(N=CC2=C(O)CCCC2=O)cc1,"inconclusive: 23.9 µM [inhibitor, single point]"
23,O=C(NC1CCCCC1)c1cc(C2CC2)on1,"inconclusive: 16.9 µM [inhibitor, partial curve]"
24,Cc1cccc(C(=O)Nc2ccn(C)n2)c1,"inconclusive: 23.9 µM [inhibitor, partial curve]"
25,COC(=O)/C=C1\N/C(=N/c2nc(C)c3cc(OC)ccc3n2)NC1=O,"inconclusive: 23.9 µM [inhibitor, partial curve, poor fit]"

row,SMILES,Potency
1,COc1ccc(NC(=O)c2sc3nc4c(cc3c2N)CCCCCC4)cc1,"inconclusive: 15.1 µM [inhibitor, partial curve]"
2,Cc1ccc(Cl)cc1Nc1nc(-c2sc(NC(=O)c3ccccc3)nc2C)cs1,inactive
3,CN(C)C(=S)c1ccc(N(C)C)cc1,inactive
4,COCCNC(=O)CSc1nc2cc3c(cc2c(=O)n1CCCC(=O)NCc1ccc2c(c1)OCO2)OCO3,inactive
5,Cn1c(SCC(=O)Nc2ccc(Cl)cc2)nc(O)cc1=O,"inconclusive: 21.3 µM [inhibitor, single point]"
6,Cc1ccccc1NC(=O)CSc1nc(-c2ccccc2)cn1-c1ccccc1F,inactive
7,O=C(OC1CCOC1=O)c1cc(-c2cccc(Br)c2)nc2ccccc12 (centres undefined),"inconclusive: 16.9 µM [inhibitor, partial curve, poor fit]"
8,COc1ccccc1Cn1ccn(Cc2ccc(C)cc2)c(=O)c1=O,inactive
9,O=C(Nc1nnc(-c2ccccc2Cl)o1)c1ccco1,active: 6.01 µM
10,NS(=O)(=O)c1ccc(S(=O)(=O)NCCc2ccccc2)cc1,inactive
11,CSCCC(NC(=O)c1ccccc1)C(=O)N1CCN(Cc2ccc(Cl)cc2)CC1 (centres undefined),inactive
12,O=C(Nc1cccc(Cl)c1Cl)c1ccc(-c2ccccc2)cc1,"inconclusive: 4.26 µM [inhibitor, partial curve, poor fit]"
13,Cc1ccc(-c2nc(SCC(=O)NCC3CCCO3)c3c(=O)n(C)c(=O)n(C)c3n2)cc1 (centres undefined),inactive
14,Cc1cc(OCCn2c(CCNC(=O)C3CCCCC3)nc3ccccc32)ccc1Cl,inactive
15,COCCCN(C(=O)c1ccc2ccccc2n1)c1c(N)n(Cc2ccccc2)c(=O)[nH]c1=O,"inconclusive: 21.3 µM [inhibitor, single point]"
16,COc1cc2[nH]c3c(=O)n4c(nc3c2cc1OC)SCCC4,"inconclusive: 30.1 µM [inhibitor, single point]"
17,CCOC(=O)c1c(NC(=O)N/N=C/c2ccc(O)c(OC)c2)sc(C(C)=O)c1C,"inconclusive: 21.3 µM [inhibitor, partial curve]"
18,CCOc1ccc(CCNC(=O)COC(=O)c2ccc3c(c2)OCCO3)cc1OCC,inactive
19,CCCCCc1ccc(-c2cn(Cc3ccc4ccccc4c3)nn2)cc1,inactive
20,O=C(O)CCC(=O)NCc1cn(-c2ccccc2)nc1-c1cccc(Br)c1,"inconclusive: 37.9 µM [inhibitor, single point]"
21,CCc1ccccc1NC(=O)N1CCc2ccccc21,"inconclusive: 30.1 µM [inhibitor, partial curve, poor fit]"
22,Cc1ccc(-n2c(=O)c3sccc3n(Cc3cc(=O)n4cc(Cl)ccc4n3)c2=O)cc1F,inactive
23,Oc1c(C(c2ccccc2F)N2CCN(c3ccccc3F)CC2)sc2nc(-c3ccco3)nn12 (centres undefined),"inconclusive: 21.3 µM [inhibitor, partial curve]"
24,O=C(c1cc(-c2ccc(Cl)cc2)on1)N1CCCCCC1,active: 1.9 µM
